In PubChem BioAssay AID686979 (National Center for Advancing Translational Sciences (NCATS), 2013):
Out of some 420,000 compounds screened, about 50,000 (12%) were called active. The shares of active, inactive and inconclusive entries below differ from those in the screen. The call rests on the fitted dose curve; in most records, active means well fitted inhibition curve with a large enough effect; inconclusive means small, poorly fitted or top-dose-only effect; inactive means flat fitted curve, though single readings scatter. Potencies of inconclusive entries are left out as doubtful fits.

Experiment: qHTS for Inhibitors of human tyrosyl-DNA phosphodiesterase 1 (TDP1): qHTS in cells in presence of CPT; further: nearly all actives have a fitted effect of over 55% in size
Settings: chicken DT40 Tdp1-/-;hTDP1 cells + 20 nM CPT, ATP luminescence, 48 h; activity change, negative = growth inhibition: at 46.2 µM (top of the series)
Procedure, shortened: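 Chicken DT40 Tdp1-/- cells stably complemented with human TDP1 were seeded at 400 cells/well in medium containing 20 nM camptothecin, exposed to pin-transferred compounds, and grown at 37 °C for at least 48 hr. Viability was read as ATP luminescence.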
On the % scale 0 is the no-effect control and ±100 the full control effect; potency means the concentration at half of the fitted maximal effect; tags describe the fitted curve by direction and shape.

| SMILES | Potency | activity change, negative = growth inhibition |
| --- | --- | --- |
| COc1cccc(NC(=O)CSC2=Nc3ccccc3C3=NC(CC(=O)NCc4ccc5c(c4)OCO5)C(=O)N23)c1 (stereo not drawn) | inconclusive [inhibitor, single point] | – |
| O=c1[nH]c(COc2ccc(Br)cc2Cl)nc2ccccc12 | active: 20.6 µM | – |
| Cc1cccc(Nc2nc3c(S(=O)(=O)c4ccccc4)nnn3c3ccccc23)c1C | inconclusive [inhibitor, single point] | – |
| Cc1ccccc1CS(=O)(=O)c1cn(CC(=O)N2CCC(C)CC2)c2ccccc12 | – | inactive: -109% |
| COc1cc(CCc2ccccc2)c(C(=O)O)c(O)c1CC=C(C)C | active: 23.1 µM | – |
| COc1ccc2nc(NC(=O)c3cccs3)sc2c1 | inconclusive [inhibitor, partial curve] | – |
| COc1ccccc1CNc1nc2cc(-c3ccc(OC)c(OC)c3)sc2c(=O)n1C | active: 23.1 µM | – |
| CCOC(=O)C1=CCN(S(=O)(=O)c2ccccc2)C1c1ccccc1 (stereo not drawn) | inconclusive [inhibitor, single point] | – |
| COc1ccc(S(=O)(=O)Nc2ccc(O)c3ccccc23)cc1 | active: 3.26 µM | – |
| Cc1cc(C)c(NC(=O)C(=O)NCC(c2cccnc2)N2CCN(Cc3ccccc3)CC2)c(C)c1 (stereo not drawn) | active: 11.6 µM | – |
| CCCCNC(=O)c1cnc2sc(N3CCCCCC3)nn2c1=O | inconclusive [inhibitor, single point] | – |
| O=c1c2cc(Cl)ccc2[nH]c(=S)n1Cc1ccco1 | inconclusive [inhibitor, single point] | – |
| CCCC(=O)Nc1cc(C)c2c(=O)oc3ccccc3c2n1 | inconclusive [inhibitor, single point] | – |
| CCOc1ccc2nc(C)cc(Nc3cccc([N+](=O)[O-])c3)c2c1 | active: 3.26 µM | – |
| COC(=O)c1c(NC(=O)C2COc3ccccc3O2)sc2c1CCN(Cc1ccccc1)C2 (stereo not drawn) | active: 16.4 µM | – |
| COc1ccc(C)cc1NC(=O)Nc1ccccc1OCc1cc(=O)n2ccccc2n1 | inconclusive [inhibitor, single point] | – |
| c1cncc(CNc2ncnc3ccc(-c4cccnc4)cc23)c1 | active: 0.0065 µM | – |
| NC(Cc1ccccc1)c1csc(Nc2ccc(C(=O)c3ccccc3)cc2)n1 (stereo not drawn) | active: 14.6 µM | – |
| CSc1nn(Cc2cccc(Cl)c2)c(N(C(C)=O)C(C)=O)c1S(=O)(=O)c1ccccc1 | inconclusive [inhibitor, single point] | – |
| COC(=O)c1[nH]c2ccc(Br)cc2c1NC(=O)CN1CCCCC1CCO (stereo not drawn) | inconclusive [inhibitor, single point] | – |
| CCC(C(=O)NCc1cccnc1)c1ccccc1 (stereo not drawn) | – | inactive: -12.3% |
| CN(C)c1ccc(NC(=O)c2cccc([N+](=O)[O-])c2)c2ccccc12 | – | inactive: -18.4% |
| COc1c(O)cnn(-c2ccccc2)c1=O | – | inactive: 3.44% |
| COc1ccc(C2c3c(ncn(CCCN4CCOCC4)c3=N)Oc3ccc4ccccc4c32)cc1OC (stereo not drawn) | active: 23.1 µM | – |
| CC(C)COC(=O)c1nnsc1NC(=O)Nc1ccccc1 | inconclusive [inhibitor, single point] | – |

| SMILES | Potency | activity change, negative = growth inhibition |
| --- | --- | --- |
| CS(=O)(=O)N1CCC(C(=O)Nc2cccc(Cl)c2)CC1 | – | inactive: 10.4% |
| Cc1cc(C)c2c(c1)cc(C)c1nnc(SCC(=O)Nc3cc(C)on3)n12 | active: 8.2 µM | – |
| Cc1ccc(OCCOC(=O)CN2C(=O)NC3(CCCC3)C2=O)cc1 | inconclusive [inhibitor, partial curve, poor fit] | – |
| CC(C)(C)c1ccc(S(=O)(=O)n2c(CN3CCOCC3)nc3ccccc32)cc1 | active: 20.6 µM | – |
| O=S(=O)(Nc1cccc(Oc2ccc(Cl)cc2)n1)c1ccc(F)cc1 | inconclusive [inhibitor, single point] | – |
| CC(C)(C)C(=O)Nc1nc2c(s1)CN(Cc1ccccc1)CC2 | inconclusive [inhibitor, single point] | – |
| CN(CCO)c1ccc(C(C(=O)c2ccccc2)c2ccc(N(C)CCO)cc2)cc1 | inconclusive [inhibitor, partial curve] | – |
| COc1ccc(N2CCN(C(=O)CN(c3ccc(OC)cc3)S(=O)(=O)c3ccccc3)CC2)cc1 | active: 13 µM | – |
| O=c1c(Cl)c(N2CCN(S(=O)(=O)c3ccc(F)cc3)CC2)cnn1-c1cccc(Cl)c1 | inconclusive [inhibitor, single point] | – |
| Clc1ccc(C(c2nnnn2C2CCCC2)N2CCN(Cc3ccncc3)CC2)cc1 (stereo not drawn) | inconclusive [inhibitor, single point] | – |
| Cc1ccc(CN2CCS(=O)(=O)CC2)cc1 | – | inactive: -8.3% |
| COc1ccc(/C=C\c2nccc3c2[nH]c2ccccc23)cc1 | inconclusive [inhibitor, single point] | – |
| Cc1cccc(NS(=O)(=O)c2ccc(C)c(C(=O)NCC(c3cccs3)N(C)C)c2)c1 (stereo not drawn) | active: 18.4 µM | – |
| O=C1Nc2c(c(=O)[nH]c(=O)n2-c2ccc(F)cc2)C1(NS(=O)(=O)c1ccccc1)C(F)(F)F (stereo not drawn) | – | inactive: -13.1% |
| O=C(NCc1ccccn1)c1ccc(Cn2c(=S)[nH]c3ccc(Br)cc3c2=O)cc1 | inconclusive [inhibitor, single point] | – |
| COc1ccc2c(c1)c(CC(=O)OC(C)C(=O)N(C)C)c(C)n2C(=O)c1ccc(Cl)cc1 (stereo not drawn) | active: 20.6 µM | – |
| O=C(O)c1ccc(NC2=C(N3CCOCC3)C(=O)c3ccccc3C2=O)cc1 | inconclusive [inhibitor, single point] | – |
| COc1ccc(-c2cnc3c(c2)C(=O)N([C@H](C)CO)C[C@@H](C)[C@H](CN(C)Cc2ccccc2)O3)cc1 | active: 14.6 µM | – |
| c1ccc2c(-c3ccc4nncn4c3)cncc2c1 | inconclusive [inhibitor, partial curve] | – |
| CC1(C)CC(=O)C=C(c2n[nH]nc2C2CCCCC2)C1 | – | inactive: -1.4% |
| CCc1nc2nc(C)c(NS(=O)(=O)c3ccc4c(c3)CCCC4)c(=O)n2[nH]1 | – | inactive: -0.594% |
| CCOc1ccc2nc(N3CCCC(C(=O)NCCCN4CC(C)CC(C)C4)C3)sc2c1 (stereo not drawn) | active: 18.4 µM | – |
| Cc1cccc(NC(=S)N2CCN(S(=O)(=O)c3ccccc3)CC2)c1 | – | inactive: -10.1% |
| CC1(C)CC(=O)C=C(c2ccc(-c3ccccc3)cc2)C1 | – | inactive: -19.1% |
| Cc1cccc(OCCCSc2nc3ccccc3[nH]2)c1 | inconclusive [inhibitor, single point] | – |

| SMILES | Potency | activity change, negative = growth inhibition |
| --- | --- | --- |
| Cc1nn(-c2ccccc2)c(C)c1/C=N/n1c(-c2ccncc2)n[nH]c1=S | – | inactive: -2.6% |
| O=C(N/N=C/c1ccccn1)c1cc(-c2ccncc2)nc2ccccc12 | inconclusive [inhibitor, single point] | – |
| CCCCCCc1cc2cc(-c3nnc(-c4ccccc4O)o3)c(=O)oc2cc1O | active: 8.2 µM | – |
| COc1ccc(/C=N/NC(=O)c2ccc(OC)c(OC)c2)cc1COc1c(F)c(F)c(F)c(F)c1F | active: 16.4 µM | – |
| CN1CCN(c2nc(Nc3ccc(F)cc3)nc(Nc3ccc(F)cc3)n2)CC1 | active: 20.6 µM | – |
| COc1cc(OC)cc(C(=O)Nc2cc(-c3nc4cccnc4s3)ccc2C)c1 | inconclusive [inhibitor, single point] | – |
| Fc1ccc(/C=N/n2cnn(Cc3ccccc3Cl)c2=S)cc1 | – | inactive: -20.1% |
| CC(C)OCCCn1c(-c2ccco2)nc2nc3ccccc3nc21 | inconclusive [inhibitor, single point] | – |
| CCC(C(=O)Nc1ccc(C(=O)OC)cc1)n1nc(-c2ccc(C)c(C)c2)ccc1=O (stereo not drawn) | inconclusive [inhibitor, single point] | – |
| CC1CCCN(S(=O)(=O)c2ccc(NC(=O)C3CC(=O)N(C(C)(C)C)C3)cc2)C1 (stereo not drawn) | inconclusive [inhibitor, partial curve, poor fit] | – |
| COc1ccc(S(=O)(=O)N(CC(=O)NCCSCc2ccccc2)c2ccc(C)cc2)cc1 | inconclusive [inhibitor, single point] | – |
| CS(=O)(=O)N1CCCCC1c1cc(C(=O)NCc2ccc(F)cc2)no1 (stereo not drawn) | – | inactive: -28.8% |
| COc1ccc(C2/C=C\CN(C(=O)c3ccccc3)[C@H](Cc3ccccc3)C(=O)N2Cc2ccc(F)cc2)cc1 (stereo partly drawn) | active: 20.6 µM | – |
| Cc1ccc(C(=O)C=Cc2cccc(C)c2)cc1 | inconclusive [inhibitor, single point] | – |
| CCOc1ccc(CNC(=O)Cn2ccc3cc(S(=O)(=O)N4CCCCC4)ccc32)cc1 | inconclusive [inhibitor, single point] | – |
| COc1ccc(F)cc1S(=O)(=O)n1nnc2ccccc21 | inconclusive [inhibitor, full curve, poor fit] | – |
| CC1(OC(=O)C2CCCC2)C(=O)C=C2C=C(c3ccsc3)N(Cc3ccccc3)C=C2C1=O (stereo not drawn) | inconclusive [inhibitor, single point] | – |
| O=C(CSc1ccccc1Cl)c1ccco1 | active: 20.6 µM | – |
| Cc1ccc(C)c(N2N=C(C(=O)Nc3ccc(N4CCOCC4)cc3)CCC2=O)c1 | – | inactive: -23.5% |
| Cc1ccc(Cn2c(=O)n(-c3cc(C)cc(C)c3)c(=O)c3oc4ccccc4c32)cc1 | inconclusive [inhibitor, single point] | – |
| Cc1cc(NC(=O)COC(=O)C(C)Oc2ccc(Cl)cc2Cl)no1 (stereo not drawn) | – | inactive: -19.9% |
| O=C(CCCOc1ccccc1)Nc1cccc(S(=O)(=O)N2CCOCC2)c1 | – | inactive: -21.6% |
| COC(=O)C1=C(O)/C(=C\c2ccc(CNS(=O)(=O)c3ccc(Cl)cc3)o2)N=C1C | inconclusive [inhibitor, single point] | – |
